According to PubChem BioAssay AID1159614 (National Center for Advancing Translational Sciences (NCATS), 2016):
About 65 (0.1%) of roughly 45,000 compounds were called active. Calls follow the shape of the dose curve; as a rule, active = well fitted activation curve with a large enough effect; inconclusive = small, poorly fitted or top-dose-only effect; inactive = no such curve, though single readings can be large or run the other way. The list shows a part of the results.

molecular target: Galactocerebrosidase (Homo sapiens) (UniProt P54803); test: A Novel Cell-Based Assay to Identify Small Molecules for B -Galactocerebrosidase; details: 145M-Twi-hGALC-G270D cells (Twitcher mouse brain line with human GALC G270D), HMU-beta-Gal fluorescence, 48 h; series mostly up to 57.5 µM; activation: at the top concentration; also: 0% is about no effect; nearly all actives have a fitted effect of over 65% in size
Procedure, shortened: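 Fluorogenic HMU-b-Gal hydrolysis (0.1 mM final, pH 5.2 citrate-phosphate with 1 mg/mL sodium taurocholate; carbonate stop buffer) measures mutant GALC activity after compound treatment of live 145M-Twi Twitcher brain cells stably carrying human GALC-G270D, with wild-type GALC line alongside; activation sought.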

Chain of UniProt P54803 (P54803 whole entry, looked up): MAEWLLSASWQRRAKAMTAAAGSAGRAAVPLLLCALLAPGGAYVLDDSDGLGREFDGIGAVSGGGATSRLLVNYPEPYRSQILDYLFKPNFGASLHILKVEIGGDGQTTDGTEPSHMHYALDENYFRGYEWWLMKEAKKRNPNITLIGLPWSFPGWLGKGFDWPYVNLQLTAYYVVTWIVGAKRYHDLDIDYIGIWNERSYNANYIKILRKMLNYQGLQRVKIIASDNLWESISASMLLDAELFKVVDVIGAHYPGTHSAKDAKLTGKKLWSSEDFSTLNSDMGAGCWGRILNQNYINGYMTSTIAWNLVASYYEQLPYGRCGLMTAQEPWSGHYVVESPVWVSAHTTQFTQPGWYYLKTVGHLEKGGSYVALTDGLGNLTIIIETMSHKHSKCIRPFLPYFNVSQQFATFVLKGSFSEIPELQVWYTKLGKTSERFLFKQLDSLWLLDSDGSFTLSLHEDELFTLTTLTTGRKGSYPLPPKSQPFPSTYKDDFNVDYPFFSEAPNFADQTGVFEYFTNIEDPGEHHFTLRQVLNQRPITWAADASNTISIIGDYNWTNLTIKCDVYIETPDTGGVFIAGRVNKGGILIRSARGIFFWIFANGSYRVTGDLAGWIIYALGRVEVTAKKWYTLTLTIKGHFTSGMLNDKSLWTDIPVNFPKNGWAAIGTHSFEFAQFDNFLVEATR

activation, inactive:
CCc1ccccc1NC(=O)COC(=O)c1cn(CC)c2nc(C)ccc2c1=O -12.3%
CCCCOC(=O)c1ccc(Nc2nc3ccc(C)cc3n3cnnc23)cc1 21.9%
CCCOc1ccc(Cn2c(=O)sc3ccccc32)cc1 -15.4%
O=C(CSCc1ccc(F)cc1)N1CCc2c([nH]c3ccccc23)C1c1ccccc1 (stereo unspecified) 0.816%
CCCCCNc1nc2c(-c3ccccc3)nnn2c2ccccc12 -11%
CCc1ccc(OC(=O)c2sc3ncn(Cc4cccc(F)c4)c(=O)c3c2C)cc1 5.87%
Cc1ccc(-c2nc(SCC(=O)Nc3cc(C)on3)c3c(=O)n(C)c(=O)n(C)c3n2)cc1 -16.6%
O=C(CC(=O)Nc1ccccc1F)Nc1ccc2nc3n(c(=O)c2c1)CCCCC3 -8.55%
Cc1cccc(N2CCN(C(=O)c3ccc4c(c3)N(Cc3cccc(Cl)c3)C(=O)c3ccccc3S4=O)CC2)c1C (stereo unspecified) -11.3%
COc1ccccc1NC(=O)c1c(NC(=O)c2cccs2)sc2c1CCC(C(C)(C)C)C2 (stereo unspecified) -4.83%
NS(=O)(=O)c1ccc(CCNC(=O)CCn2c(=O)c3cccn3c3cccnc32)cc1 -4.68%
COc1ccc(Cl)cc1NC(=O)c1cc2nc(-c3ccc(C)cc3)cc(C(F)(F)F)n2n1 -15.4%
Cc1cc(Br)ccc1NC(=O)C(NS(=O)(=O)c1cccs1)c1ccccc1 (stereo unspecified) -6.91%
COc1cc2nc(N3CCN(C(=O)C4COc5ccccc5O4)CC3)nc(N)c2cc1OC (stereo unspecified) -10.6%
Cc1cc(F)ccc1NC(=O)CN1C(=O)CCc2cc(S(=O)(=O)N3CCOCC3)ccc21 -7.83%
Fc1ccc(Nc2nc(-c3ccc(F)cc3)c3c(n2)-c2ccccc2OC3)cc1 -7.76%
O=C(c1cnc(N2CCCCC2)c2ccccc12)N1CCN(c2ccc(F)cc2)CC1 3.92%
Cc1c(NC(=O)c2ccc(-c3ccc(F)cc3)o2)cccc1-c1nc2ncccc2o1 -7.07%
COc1cccc(C(=O)Nc2ccc3nc(SCC(=O)N4CCc5ccccc54)sc3c2)c1 -6.3%
Cc1sc2c(c1C)c(=O)n(-c1ccc(Cl)cc1)c(=O)n2CC(=O)c1ccccc1 2.34%
CSc1nc(C)cc(Nc2cccc(C(=O)O)c2)n1 -10.8%
COc1cc(NC(=O)CCCN2C(=O)CCn3nc(-c4cn(C)c5ccccc45)cc32)cc(OC)c1 -6.09%
CCOC(=O)C(C)Nc1ncnc2onc(C)c12 (stereo unspecified) -1.02%
Cc1ccc(-c2nc3scc(CCNS(=O)(=O)c4c(C)noc4C)n3n2)cc1 -19%
COc1cccc(CNC(=O)c2ccc3c(c2)sc2nc(-c4ccccc4)cn23)c1OC -16.9%
O=c1[nH]c2ccc(S(=O)(=O)Nc3cc(Cl)ccc3O)cc2o1 -8.26%
CCOc1ccccc1CNC(=O)c1cc2oc3ccccc3c2n1CC 4.63%
Cc1nc2c(-c3ccc(F)cc3)c(C)nn2c(C)c1CCC(=O)NCc1cccc(Cl)c1 -14.4%
O=C(OCC1CCCO1)c1ccc2c(c1)N(Cc1cccc(F)c1)C(=O)c1ccccc1S2(=O)=O (stereo unspecified) -6.32%
CCC(=O)N1CCc2cc(Br)cc(S(=O)(=O)N3CCN(c4cccc(Cl)c4)CC3)c21 6.98%
Cc1cc2c(cc1S(=O)(=O)CCC(=O)N(C)Cc1ccccc1)OCC(=O)N2 -0.636%
CC1CCc2nc(NC(=O)Cc3ccc(Cl)cc3)sc2C1 (stereo unspecified) -12%
CCOc1cccc(C2c3[nH]c4ccccc4c3CCN2C(=O)Cc2cccc(OCC)c2OCC)c1 (stereo unspecified) 3.55%
CC1=C(C(=O)OC2CCCC2)C(c2ccc(Cl)cc2)CC(=O)N1 (stereo unspecified) -4.89%
COc1ccc(C2=NS(=O)(=O)N(C)C(C(=O)NC(C)c3ccccc3)=C2)cc1OC (stereo unspecified) -3.91%
O=C(CSc1nc(-c2ccccc2)no1)N1CCN(c2ccc(F)cc2)CC1 -14.5%
Cc1cc(C)cc(NC(=O)CN(c2cccc(C)c2C)S(=O)(=O)c2ccccc2)c1 -5.04%
COc1ccc2c(CNCCc3ccccc3OC)c(C(=O)O)n(Cc3ccc(F)cc3Cl)c2c1 -10.8%
CSc1cccc(NC(=O)N2CCN(S(=O)(=O)c3ccc4c(ccn4C)c3)CC2)c1 -17%
Cc1cccc(NC(=O)C2CCN(S(=O)(=O)c3c(C)noc3/C=C/c3ccco3)CC2)c1C -20.9%
COc1cccc(N2C(=O)CSC23C(=O)N(Cc2ccccc2F)c2ccccc23)c1 (stereo unspecified) -34.5%
CCc1ccccc1NC(=O)Cn1c(=O)oc2ccccc21 -11%
CCCN(C(=O)Cn1nc(Cc2cccnc2)c2ccccc2c1=O)c1ccc(C(C)C)cc1 -13%
CCN(CC)C(=O)Nc1ccc(OCC(O)CNC(C)(C)C)c(C(C)=O)c1 (stereo unspecified) -6.45%
COc1ccc(C(=O)NCC(c2cccs2)S(=O)(=O)c2cccs2)cc1 (stereo unspecified) 5.64%
Cc1ccc(NC(=O)[C@H](Cc2ccccc2)N2Cc3ccccc3C2=O)cc1F -8.47%
CCOc1ccc(C2CC(=O)c3c([nH]c(C(=O)OC4CCCCCC4)c3C)C2)cc1 (stereo unspecified) -28.3%
CC1=C(C(=O)OC2CCCCCC2)C(c2c(Cl)cccc2Cl)CC(=O)N1 (stereo unspecified) -11.5%
CCCn1c2ccc(C)cc2c2nnc(SCCN3CCCCC3)nc21 -11.7%
COc1ccc(CCNC(=O)c2cc(-c3ccc(C)c(C)c3)nc3ccccc23)cc1OC 7.88%
O=C(CN1C(=O)CC(c2ccco2)Sc2ccccc21)Nc1ccc(OC(F)(F)F)cc1 (stereo unspecified) -7.97%
Cc1ccc(S(=O)(=O)Nc2nc3n(n2)C(c2ccc(Cl)cc2)C=C(c2ccccc2)N3)cc1 (stereo unspecified) -9.4%
Cc1ccc(CNc2nc3nc(C)c(Cl)c(C)n3n2)cc1 -24.9%
COc1ccc(-c2nc(CS(=O)CC(=O)NCc3ccccc3Cl)c(C)o2)cc1OC (stereo unspecified) -16.4%
O=C(c1ccco1)N1CCNCC1 -10.7%
Cn1c(C(=O)Nc2cccc(Cl)c2)cc2c(=O)n(C)c3ccccc3c21 -1.38%
O=S(=O)(c1ccc(Br)cc1)N1CCn2cccc2C1c1ccc(Br)cc1 (stereo unspecified) -6.85%
Cc1nn(C)c2c1c(C(F)(F)F)cc(=O)n2C(C)C(=O)NCc1ccccc1 (stereo unspecified) -19.9%
CCOCCc1nn2c(=O)cc(COC(=O)c3ccc4c(c3)OCO4)nc2s1 -30.2%
O=C(NCc1ccccc1)c1ccc2c(c1)sc1nc(-c3ccc(F)cc3)cn12 -19.6%
CCc1ccccc1NC(=O)CSc1nc2ccccc2nc1Cc1cccc(OC)c1 -11.5%
CC(C)c1nn2c(=O)cc(COC(=O)COc3ccccc3F)nc2s1 -19.3%
Cc1ccc(C)c(N2CCN(CCCNC(=O)c3ccc4nc(C(C)C)oc4c3)CC2)c1 -11.6%
COc1cccc(-c2cn3c(n2)sc2cc(C(=O)NCCc4ccccc4)ccc23)c1 -12.5%
Cc1ccc(-c2cn3c(n2)sc2cc(C(=O)NC4CCCCCC4)ccc23)c(C)c1 -6.72%
Cc1ccc(Cl)cc1N1CCN(C(=O)C2CCN(S(=O)(=O)c3c(C)noc3/C=C/c3ccccc3F)CC2)CC1 -11.2%
Cc1oc2c(c(C)cc3oc(=O)c(CC(=O)NCCc4ccc(Cl)cc4)c(C)c32)c1C -29.8%
Cc1cccc(NC(c2nnc(-c3ccccc3)o2)c2ccc(F)cc2Cl)c1C (stereo unspecified) -5.39%
CCn1c(=O)c2c(nc(C=Cc3ccc(OC)c(OC)c3)n2C)n(CC)c1=O -9.41%
O=C(O)CCSc1nnc(-c2ccc(Cl)cc2Cl)o1 6.76%
CC1(C)O[C@H]2[C@@H](O1)[C@@H](C(=O)Nc1cc(F)ccc1F)O[C@@H]1OC(C)(C)O[C@@H]12 5.36%
CCCCC1C(=O)N(c2ccccc2)N(c2ccc(O)cc2)C1=O (stereo unspecified) -12.6%
Cc1cc(-c2ccc(C)c(S(=O)(=O)N(C(C)C)C3CCCCC3)c2)on1 -6.71%
CCOC(=O)c1ccc(CN(Cc2ccc(Cl)cc2Cl)S(=O)(=O)c2cccc(Cl)c2)cc1 -3.8%
O=C(CCBr)N1CCN(C(=O)CCBr)CC1 -14.6%
COc1ccc(-c2nc3n(n2)C(c2cccc(C)c2)C(C(N)=O)=C(C)N3)cc1OC (stereo unspecified) -14.5%
CC(=O)c1ccc(NC(=O)c2nn(C)c3c2CS(=O)(=O)c2ccccc2-3)cc1 -13.9%
COc1cc2c(cc1OC)C(C(C(=O)N(CCc1ccc(OC)c(OC)c1OC)CCc1ccc(OC)c(OC)c1OC)c1ccccc1)=NCC2 (stereo unspecified) -19%
Cc1cccc(-c2cc(C(=O)O)c3c(-c4ccc(F)cc4)[nH]nc3n2)c1 -8%
Cc1ccc2nc(N(Cc3cccnc3)C(=O)CCc3ccccc3)sc2c1 5.24%
Cc1cccc(NC(=O)c2ccc(F)c(S(=O)(=O)N3CCN(c4ccc(F)cc4)CC3)c2)c1 -6.17%
CCOC(=O)C1=C(CN2CCCCC2)NC(=O)NC1c1ccc(OC)cc1 (stereo unspecified) -16.4%
CCOc1ccccc1NC(=O)c1cn(C2CCCCC2)c(=O)c2c1c1ccccc1n2C -17%
COc1ccc(CCNC(=O)CCn2c(=O)c3cccn3c3ccc(F)cc32)cc1OC -9.94%
Cc1ccc(-c2cn3c(n2)sc2cc(C(=O)NC4CCCCC4)ccc23)cc1 -5.62%
O=C(NC1CC(=O)N(c2ccc(F)cc2)C1)C1CCCCC1 (stereo unspecified) -4.55%
CCOc1cc(/C=C(\C#N)C(=O)Nc2ccccc2C)ccc1OCc1cc(=O)n2nc(CC)sc2n1 3.53%
CCN(CC)C(=O)Cn1c(=O)n(CCCCCC(=O)NCc2ccccc2)c(=O)c2sccc21 -10.6%
COc1ccccc1C(=O)Nc1ccccc1SCc1cc(=O)c2ccccc2[nH]1 -12.1%
c1cc(CN2CCCCC2)cc(OCCCNc2nc3ccccc3s2)c1 -13.9%
O=C(c1ccc2c(c1)N(Cc1ccccc1F)C(=O)c1ccccc1S2=O)N1CCCCC1 (stereo unspecified) -6.47%
COc1ccc(-c2nc(C)c(CCNC(=O)c3cc(OC)c(OC)c(OC)c3)s2)cc1OC -18.1%
O=C(NCc1ccccc1)c1cc2ccccc2o1 -20%
COc1ccc(OC)c2sc(N(Cc3cccnc3)C(=O)c3ccc(C(C)=O)cc3)nc12 -4.87%
Cc1nnc(SCC(=O)NCc2ccc(N(C)C)cc2)c2nn(-c3ccccc3)c(C)c12 -8.7%
Cc1ccc(NC(=O)C2CCN(c3nnc(-n4cccc4)s3)CC2)cc1Cl -15.2%
